{"source": "PubChem BioAssay (Tox21)", "note": "Several values for one entry are separate records, joined by “and”; a condition that tells them apart may be missing. Equal values may be shown once. The source holds several records for some structures; these can differ, active in one and inactive in another. Activity calls are given as the source filed them. Unless noted, calls follow the shape of the dose curve; as a rule, active = well fitted activation curve with a large enough effect in the repeat runs; inconclusive = weak or mixed curves, or effect the other way; inactive = no such curve, though single readings can be large or run the other way. Potency is read from the fitted curve at half-maximal effect; tags tell the direction and shape of the fitted curve or compound fluorescence and quenching.", "data": [{"tested_on": "not listed separately", "assay": "qHTS assay to identify small molecule antagonists of the estrogen receptor alpha (ER-alpha) signaling pathway - cell viability counter screen (AID 743074; calls by dose curve;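 also: HEK293 cells carrying ER-alpha-UAS-bla reporter stimulated with 17beta-estradiol; nearly all actives have a fitted effect of over 45% in size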)", "details": "ERalpha-bla HEK293 viability, CellTiter-Glo luminescence, 18 h; series mostly up to 69.4 µM; activity, negative = cytotoxicity: at the top concentration", "values": [{"smiles": "CSc1c(Cl)c(Cl)c(Cl)c(Cl)c1Cl", "Potency": "inconclusive: 61.3 µM [rising, single point]"}, {"smiles": "CCOC(=O)N1CCC(=C2c3ccc(Cl)cc3CCc3cccnc32)CC1", "Potency": "inconclusive: 54.9 µM [cytotoxic, single point]"}, {"smiles": "CCCCCCCCCCCCc1ccccc1O", "Potency": "active: 48.3 µM and active: 49 µM"}, {"smiles": "On1ccccc1=S", "Potency": "inconclusive: 13.7 µM [cytotoxic, full curve]"}, {"smiles": "O=C(O)c1cccnc1", "Potency": "inconclusive: 6.15 µM [cytotoxic, full curve, poor fit]"}, {"smiles": "CN(C)C(=S)SC(=S)N(C)C", "Potency": "inconclusive: 14.2 µM [cytotoxic, partial curve, poor fit] and active: 49 µM"}, {"smiles": "CN(C)c1ccc(C(=C2C=CC(=[N+](C)C)C=C2)c2ccccc2)cc1", "Potency": "inconclusive: 21.3 µM [cytotoxic, partial curve, poor fit] and active: 1.1 µM"}, {"smiles": "Cc1c(C)n(Cc2ccccc2)c2ccc(C(=O)OCCN(C)C)cc12", "Potency": "inconclusive: 23.9 µM [cytotoxic, single point]"}, {"smiles": "CCCCC(CC)COC(=O)CC(C(=O)OCC(CC)CCCC)S(=O)(=O)O", "note": "(configuration not stated)", "Potency": "inconclusive: 23.9 µM [cytotoxic, partial curve] and inconclusive: 10.7 µM [cytotoxic, partial curve, poor fit] and active: 47.1 µM"}, {"smiles": "Nc1ccc(S(=O)(=O)Nc2cnc3ccccc3n2)cc1", "Potency": "inconclusive: 24.5 µM [rising, partial curve, poor fit]"}]}, {"biological_target": "Estrogen receptor (Homo sapiens) (UniProt P03372)", "sequence (P03372 whole entry, looked up)": "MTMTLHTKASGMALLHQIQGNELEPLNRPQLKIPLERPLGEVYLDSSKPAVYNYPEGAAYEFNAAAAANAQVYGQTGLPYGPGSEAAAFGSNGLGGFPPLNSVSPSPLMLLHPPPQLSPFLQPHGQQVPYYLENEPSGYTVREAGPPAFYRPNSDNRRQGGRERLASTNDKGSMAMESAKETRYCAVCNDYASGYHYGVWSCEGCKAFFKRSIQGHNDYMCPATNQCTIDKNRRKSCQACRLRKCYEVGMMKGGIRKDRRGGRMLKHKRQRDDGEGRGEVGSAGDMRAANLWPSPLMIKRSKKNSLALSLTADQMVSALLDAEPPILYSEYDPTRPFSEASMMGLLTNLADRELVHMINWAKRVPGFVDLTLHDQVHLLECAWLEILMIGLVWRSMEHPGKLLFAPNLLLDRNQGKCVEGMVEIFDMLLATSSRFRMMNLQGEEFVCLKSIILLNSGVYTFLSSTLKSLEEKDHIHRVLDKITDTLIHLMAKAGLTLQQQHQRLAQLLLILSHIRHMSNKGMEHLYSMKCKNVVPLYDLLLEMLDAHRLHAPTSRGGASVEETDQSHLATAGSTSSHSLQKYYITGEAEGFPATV", "assay": "qHTS assay to identify small molecule agonists of the estrogen receptor alpha (ER-alpha) signaling pathway (AID 743075; calls by dose curve;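 also: HEK293 GripTite cells with ER-alpha and UAS-driven beta-lactamase reporter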)", "details": "HEK293 ER-alpha-UAS-bla, beta-lactamase FRET ratio, 18 h; activation: at 70.1 µM (top of the series)", "values": [{"smiles": "c1ccc(Nc2cccc3ccccc23)cc1", "Potency": "active: 44.2 µM [inconclusive] and active: 17.4 µM [activator]"}, {"smiles": "CCCCCCCCCCOCC(O)CN", "note": "(configuration not stated)", "Potency": "inconclusive: 23.9 µM [activator, partial curve]"}, {"smiles": "O=Nc1ccc(Nc2ccccc2)cc1", "Potency": "active: 12.4 µM [inconclusive] and active: 55 µM [activator]"}, {"smiles": "O=C(c1ccc(O)cc1)c1ccc(O)cc1O", "Potency": "active: 11.1 µM [inconclusive] and active: 21.9 µM [inconclusive]"}, {"smiles": "O=C(Nc1ccc(Cl)cc1)Nc1ccc(Cl)c(Cl)c1", "Potency": "inconclusive: 6.16 µM [falling, full curve]"}, {"smiles": "CCOC(=O)C1=C(C)NC(C)=C(C(=O)OCC)C1c1ccccc1/C=C/C(=O)OC(C)(C)C", "Potency": "active: 6.74 µM [fluorescent]"}, {"smiles": "Cc1nc(-c2ccc3c(c2)CCN(CCC2CCC(NC(=O)/C=C/c4ccc(F)cc4)CC2)CC3)no1", "note": "(configuration not stated)", "Potency": "active: 9.79 µM [inconclusive]"}]}, {"biological_target": "Estrogen receptor (Homo sapiens) (UniProt P03372)", "assay": "qHTS assay to identify small molecule agonists of the estrogen receptor alpha (ER-alpha) signaling pathway using the BG1 cell line (AID 743079); also: nearly all actives have a fitted effect of over 20% in size; as to activation: % is scaled to controls: 0 for no effect and ±100 for the full control effect", "details": "BG1Luc4E2 cells, ERE-luciferase agonist, 22 h; activation: at 70.3 µM (top of the series) unless noted", "values": [{"smiles": "c1ccc(Nc2cccc3ccccc23)cc1", "Potency": "active: 13.9 µM and active: 9.69 µM"}, {"smiles": "CCCN(CCC)C(=O)C(CCC(=O)OCCCN1CCN(CCOC(=O)Cc2c(C)n(C(=O)c3ccc(Cl)cc3)c3ccc(OC)cc23)CC1)NC(=O)c1ccccc1", "note": "(configuration not stated)", "Potency": "active: 0.211 µM"}, {"smiles": "CC(O)C(=O)O", "note": "(configuration not stated)", "Potency": "inconclusive: 60.1 µM [activator, partial curve]", "activation": "inconclusive: -19.4% [phenotype inactive] [at 95 µM]"}, {"smiles": "O=Nc1ccc(Nc2ccccc2)cc1", "Potency": "inconclusive: 24.5 µM [activator, full curve] and active: 68.6 µM"}, {"smiles": "CCCCC(CC)COC(=O)c1ccc(N(C)C)cc1", "note": "(configuration not stated)", "activation": "inconclusive: 11% [phenotype inactive] [at 95 µM]"}, {"smiles": "O=C(c1ccc(O)cc1)c1ccc(O)cc1O", "Potency": "active: 5.5 µM and active: 9.69 µM"}, {"smiles": "O=c1[nH]sc2ccccc12", "activation": "inactive: -22%"}, {"smiles": "O=C(Nc1ccc(Cl)cc1)Nc1ccc(Cl)c(Cl)c1", "Potency": "inconclusive: 8.41 µM [inhibitor, full curve] and inconclusive: 13.6 µM [inhibitor, full curve] and inconclusive: 13.7 µM [inhibitor, single point]"}, {"smiles": "CCOC(=O)C1=C(C)NC(C)=C(C(=O)OCC)C1c1ccccc1/C=C/C(=O)OC(C)(C)C", "Potency": "inconclusive: 26.6 µM [inhibitor, partial curve]"}, {"smiles": "CC(C)(C)c1ccc(O)c(C(C)(C)C)c1", "Potency": "inconclusive: 60.9 µM [inhibitor, partial curve] and inconclusive: 68.6 µM [inhibitor, partial curve, poor fit]"}, {"smiles": "C=CCc1cc(S(=O)(=O)c2ccc(O)c(CC=C)c2)ccc1O", "Potency": "inconclusive: 68.6 µM [inhibitor, single point]"}, {"smiles": "Cc1nc(-c2ccc3c(c2)CCN(CCC2CCC(NC(=O)/C=C/c4ccc(F)cc4)CC2)CC3)no1", "note": "(configuration not stated)", "activation": "inconclusive: 26% [phenotype inactive] [at 32.5 µM]"}, {"smiles": "Cc1ccc(S(=O)(=O)NC(=O)NN2CCCCCC2)cc1", "Potency": "active: 30.6 µM"}, {"smiles": "CCOC(=O)N1CCC(=C2c3ccc(Cl)cc3CCc3cccnc32)CC1", "Potency": "inconclusive: 29.8 µM [inhibitor, single point] and inconclusive: 54.5 µM [inhibitor, partial curve]"}, {"smiles": "COc1ccc(N)c(C)c1", "activation": "inconclusive: -3.92% [phenotype inactive] and inconclusive: 14.4% [phenotype inactive]"}, {"smiles": "CCCCCCCCCCCCc1ccccc1O", "Potency": "active: 956 nM and active: 1.93 µM"}, {"smiles": "NC(=O)n1c(O)c(C(=O)c2cccs2)c2cc(Cl)ccc21", "Potency": "inconclusive: 26.6 µM [inhibitor, partial curve]"}, {"smiles": "CCCCC(CC)COC(=O)CC(C(=O)OCC(CC)CCCC)S(=O)(=O)O", "note": "(configuration not stated)", "Potency": "inactive and active: 15 µM"}, {"smiles": "Cc1ccc(O)c2ncccc12", "Potency": "inconclusive: 16.8 µM [inhibitor, partial curve]"}]}]}
